# Measured values reported in PubChem BioAssay AID1476 (National Center for Advancing Translational Sciences (NCATS), 2009).
# In all, about 200,000 compounds went through this assay and about 4,500 (2.2%) were called active. This list was built around the results that the source calls inconclusive (neither active nor inactive); the mix of calls is not that of the screen. Calls come from the whole dose curve; as a rule, active = well fitted inhibition curve with a large enough effect; inconclusive = small, poorly fitted or top-dose-only effect, or effect the other way; inactive = flat fitted curve, though single readings scatter. Where the call is inconclusive, the potency comes from a doubtful curve fit.
# Target: Cruzipain (Trypanosoma cruzi) (UniProt P25779)
# Experiment: qHTS Assay for Promiscuous and Specific Inhibitors of Cruzain (without detergent); note: nearly all actives have a fitted effect of over 40% in size;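 for max response, negative = inhibition: plate controls were enzyme without inhibitor for no effect and buffer without enzyme for full effect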
# Conditions: purified cruzain, Z-FR-AMC fluorescence, no detergent
# Summary of the method: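 Purified cruzain at 1.5 nM, pre-incubated 15 min with compound at room temperature in 100 mM sodium acetate pH 5.5, 5 mM DTT, 0.00005% Triton X-100. Reaction started with 2 uM Z-FR-AMC; AMC fluorescence increase over 60 s gives rate.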
# Potency is the fitted concentration of half-maximal effect; tags give direction and shape of the fitted curve.
# UniProt P25779, sequence (P25779 whole entry, looked up): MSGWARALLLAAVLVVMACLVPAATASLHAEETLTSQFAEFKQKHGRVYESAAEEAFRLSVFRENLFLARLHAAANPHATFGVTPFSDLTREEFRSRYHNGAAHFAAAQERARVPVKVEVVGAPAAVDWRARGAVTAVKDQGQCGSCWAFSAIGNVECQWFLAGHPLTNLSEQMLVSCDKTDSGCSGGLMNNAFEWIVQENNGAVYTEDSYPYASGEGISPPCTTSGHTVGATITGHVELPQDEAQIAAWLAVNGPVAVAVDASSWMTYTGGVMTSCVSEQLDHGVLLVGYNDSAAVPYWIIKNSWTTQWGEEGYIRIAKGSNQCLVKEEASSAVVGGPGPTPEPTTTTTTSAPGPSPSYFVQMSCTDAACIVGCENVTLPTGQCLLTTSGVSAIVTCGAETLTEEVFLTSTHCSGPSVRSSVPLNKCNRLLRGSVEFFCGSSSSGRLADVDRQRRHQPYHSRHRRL
Compound,Potency,"max response, negative = inhibition"
CC(C)(C)C(=O)/C=c1\[nH]c(=O)/c(=C\c2ccc(C#N)cc2)s1,"inconclusive: 39.8 µM [inhibitor, single point]",–
CCOc1cccc(-c2nn3c(-c4cc(C)[nH]n4)nnc3s2)c1,–,inactive: -3.66%
COC(=O)c1cc(=O)n(Cc2ccc(OC)c(OC)c2)c(=Nc2ccc(F)cc2)s1,"inconclusive: 39.8 µM [activator, single point]",–
Cc1ccc(-n2nc(C)cc2NC(=O)COc2cc(C)cc3oc(=O)c4c(c23)CCC4)cc1,"inconclusive: 39.8 µM [activator, single point]",–
O=C1O/C(=C/Br)CCC1c1cccc2ccccc12 (centres undefined),–,inactive: -9.49%
Cn1c(NCCCCO)nc2c1c(=O)n(Cc1ccc(Cl)cc1)c(=O)n2C,"inconclusive: 31.6 µM [activator, single point]",–
COC(=O)[C@@]1(Cc2ccc(F)cc2)[C@H]2c3cc(C(=O)N(C)C)[nH]c3C[C@H]2CN1C(=O)c1ccccc1,"inconclusive: 25.1 µM [activator, partial curve]",–
Cc1ccc(NC(=O)Nc2ccc(Cl)cc2)c(Br)c1,"inconclusive: 31.6 µM [inhibitor, single point]",–
CCC(Oc1ccccc1)C(=O)Nc1ccc(O)c(-c2nc3cc(C)ccc3o2)c1 (centres undefined),–,inactive: -3.82%
Cc1ccc(C(=O)CSc2nc(C)cc(=O)[nH]2)cc1,–,inactive: 6.54%
Cc1cc(C)nc(N/N=C/c2ccccc2OCc2cccc(Br)c2)n1,–,inactive: 5.21%
CCn1cc(C(=O)NCCCOC(C)C)c(=O)c2cc(S(=O)(=O)N3CCc4ccccc4C3)ccc21,–,inactive: 16.2%
O=C(OCc1cccc2ccccc12)C1CC(=O)N(c2ccccc2)C1 (centres undefined),–,inactive: -1.05%
COc1ccc(N2C(=O)CSC23C(=O)N(CC(=O)NC2CCCCC2)c2ccccc23)cc1 (centres undefined),–,inactive: 0.114%
CCCn1c(SCc2nc(-c3ccccc3C)no2)nnc1-c1ccc(Cl)cc1,–,inactive: -4.59%
CCN(CC(=O)Nc1ccc2c(c1)OCCO2)Cc1cc(=O)oc2cc(C)c(C)cc12,–,inactive: -1.71%
O=C(Nc1cc(Sc2ccccn2)cc([N+](=O)[O-])c1)c1ccc([N+](=O)[O-])cc1,active: 31.6 µM,–
COc1ccc2oc(=O)c(/C(C)=N/Nc3nc(-c4cc(C)ccc4C)cs3)cc2c1,active: 12.6 µM,–
O=C(Nc1ccccc1F)c1ccco1,–,inactive: 3.11%
CC(=O)OCC(=O)[C@@]12OC3(CCCC3)OC1CC1C3CCC4=CC(=O)C=C[C@@]4(C)[C@]3(F)C(O)C[C@]12C (some centres undefined),"inconclusive: 39.8 µM [activator, single point]",–
Cc1cccc(C(=O)Nc2cccc(-c3cnc4ccccc4n3)c2)c1,"inconclusive: 31.6 µM [inhibitor, single point]",–
Cc1c(/C=N/n2cnnc2)c2ccccc2n1CCOc1ccc(Cl)cc1,"inconclusive: 20 µM [activator, partial curve]",–

Compound,Potency,"max response, negative = inhibition"
Cc1ccc(NC(=O)Cn2nc(C)c3nn(-c4ccc(Cl)cc4)c(C)c3c2=O)cc1C,–,inactive: -7.06%
COC(=O)c1cnn(-c2ccc(C(=O)Nc3cccc(C(C)=O)c3)cc2)c1N,–,inactive: 23.2%
COc1ccc(Cn2c(C(=O)O)c(CNCc3cccc(OC)c3)c3ccc(C)cc32)cc1,"inconclusive: 39.8 µM [activator, single point]",–
O=C1c2oc3ccccc3c(=O)c2C(c2ccc(Br)cc2)N1c1ccccn1 (centres undefined),–,inactive: 1.66%
Cc1cc(=O)oc2cc(OCc3ccc(C(=O)OCC(=O)Nc4ccccc4OC(F)F)cc3)ccc12,"inconclusive: 12.6 µM [inhibitor, partial curve, poor fit]",–
Cn1c(=O)c2sccc2n2c(CCC(=O)NCc3ccc(F)cc3)nnc12,–,inactive: 2.32%
O=C(O)c1ccc(/C=N/NC(=O)c2cc(-c3cccs3)nc3ccccc23)cc1,–,inactive: 12.7%
CCOc1ccc(N(CC(=O)Nc2cccc(N(C)S(C)(=O)=O)c2)S(=O)(=O)c2ccccc2)cc1,"inconclusive: 39.8 µM [activator, single point]",–
CN(c1ccccc1)S(=O)(=O)c1ccc(Cl)c(C(=O)Nc2nc3ccccc3[nH]2)c1,"inconclusive: 39.8 µM [inhibitor, single point]",–
O=C1c2cccc3cccc(c23)C(=O)N1CCCN(C(=O)c1cccs1)c1cccc(F)c1,"inconclusive: 31.6 µM [inhibitor, single point]",–
O=C(NC(=S)Nc1nc2ccccc2s1)c1cccs1,–,inactive: -26%
COc1ccc(Br)cc1CNC(=O)c1cc2ccccn2n1,–,inactive: -19.9%
COc1cccc(/C=N/c2sc(Cc3ccccc3)c(C)c2C(N)=O)c1O,"inconclusive: 39.8 µM [activator, single point]",–
Cc1csc(NC(=O)CSc2nnc3c4ccccc4nc(C(C)(C)C)n23)n1,"inconclusive: 25.1 µM [activator, partial curve]",–
CCOc1cccc2cc(-c3nc4sc5c(c4c(=O)[nH]3)CCC(C(C)(C)C)C5)c(=O)oc12 (centres undefined),–,inactive: 5.64%
CCCCCCCCCC(=O)N/N=C(\C)c1cccnc1,"inconclusive: 39.8 µM [activator, single point]",–
O=C1CC(c2cccc([N+](=O)[O-])c2)c2ccc3ccccc3c2N1 (centres undefined),"inconclusive: 39.8 µM [inhibitor, single point]",–
O=C(COC(=O)c1ccc(CSc2ccc(Cl)cc2)cc1)Nc1ccccc1,"inconclusive: 39.8 µM [inhibitor, single point]",–
COc1ccc(-n2c(C)cc(C(=O)CSc3ccc(NC(C)=O)cc3)c2C)cc1,"inconclusive: 31.6 µM [activator, single point]",–
COc1cc(/C=C(\NC(C)=O)C(=O)Nc2cccc(O)c2)ccc1OC(C)=O,–,inactive: 5.73%
O=C(/C=C/c1cn(CC(O)CN2CCCCCC2)c2ccccc12)c1ccccc1 (centres undefined),"inconclusive: 39.8 µM [inhibitor, single point]",–
Cc1nnc(S(=O)(=O)c2ccc(N=Nc3c(N)nc(N)nc3N)cc2)s1,–,inactive: 7.34%
